Drawing on the RNAGym collection of RNA variant scans (doi:10.7554/elife.90254), this text covers self-cleavage for 167 variants.

B1: LINE1-mini (parent)
chain: GGCAGAGCUCAACACAGCGUGGCAAAGUGGCUGUGGCUAGACUGCC

Read counts are not given, so values of variants with three or more changes are uncertain.

The variants in this data set derive from B1. In words: self-cleavage, relative activity (ratio to wild type); higher = more cleavage; in vitro, sequencing; the parent is a self-cleaving ribozyme.
Consider A4G C8U U34A, for which the self-cleavage amounted to 0.04.
In the case of A4G C8G C23A G40C, the self-cleavage amounted to 0.06.
To A4G A24G G29A A39C U43C belongs 0.2; to A4U A6G C13G C23A C42A, 0.08; to A4G C10A A14U A16U C18A, 0.02.
To A4G C18G C37U belongs 0.04; to A4G A24U G33A, 0.19; to A4G G5U C18A U32A G36U, 0.01.
Regarding A4G A26G G30A U38C C42U U43A C45G, the self-cleavage is 0.08.
As to A4G G7A A25U G40C, the self-cleavage stood at 0.34.
To A4G G40A C46G belongs 0.03.
To A4G G5U U32G C46A belongs 0.02; to A4G C8U C15U G19A G30A, 0.18.
For A4G C8A C10U C15A C31U G44A C46U the value was 0.1.
Turning to A4G G29A U34G, the self-cleavage was found to be 0.2.
For A4G G27A A39G the value was 0.09; for A4G G17U U20A G29A G35U, 0.73; for A4G G29U U34G C37U A39G G40A, 0.01.
For the variant A4G U34C C45U, the self-cleavage is 0.04.
Take A4G G35U A39C: the self-cleavage was 0.04.
For A4G G7C A12C A14C the value was 0.02; for A4G G29U A41U, 0.29; for A4G G21A G35A, 0.08.
To A4G C13U C15A G17A G27A belongs 0.03; to A4G G22A A24G G36C G40A, 0.05.
For A4G C10A A12C C15U G30A the value was 0.
As for A4G C10A G22A C23U C42A, the self-cleavage worked out at 0.01.
Consider A4G C10U C15A G19C G22C, for which the self-cleavage was 0.01.
Turning to A4U A6C G19A U28A G40A, the self-cleavage worked out at 0.3.
To A4G A24C A26C G35A belongs 0.04.
Consider A4G C8A C10A, for which the self-cleavage is 0.01.
Take A4G U20A C45G: the self-cleavage amounted to 0.4.
To A4G C18G U43A belongs 0.16; to A4G G27A G36C C37U, 0.02; to A4G G22U A39U G40C, 0.07.
With A4G C10A A12C G30U, the self-cleavage was determined as 0.03.
For A4G C13G G29U C37U G44A the value was 0.02; for A4G G5U C18G G22C A25C A26G U38A, 0.01; for A4U A11C A12G A26U, 0.03.
For A4U A6U A12C the value was 0.01; for A4G A25G U38A G40A C46U, 0.02; for A4G G7C A11C C15U G35A, 0.01.
To A4G G27U G40U belongs 0.07; to A4G C10U C18U G30C G40U A41C, 0.03; to A4G C8A U28A, 0.92.
A4G A25C G33A: the self-cleavage came to 0.05.
Take A4G U34G G35C: the self-cleavage turned out to be 0.16.
For A4G U9G C10U the value was 0.05.
As for A4G U9A A24C, the self-cleavage worked out at 0.37.
For A4G G19U G22U C37U G40C C46U the value was 0.1; for A4G C18G G40A, 0.26.
To A4G G22C G30U C31G belongs 0.04; to A4G C8G C13A, 0.03; to A4G C10A C13U, 0.03.
For A4G U9A G30A G44C the value was 0.05; for A4G C8U C18A C45G, 0.03.
In the case of A4G C15U G22U G35C U43G, the self-cleavage was found to be 0.04.
For A4G C10G G17U G30U G36A the value was 0.01; for A4G G22C U32G G36C C42A, 0.04.
Consider A4G C15U G27A, for which the self-cleavage is 0.8.
For A4G C23U C45G the value was 0.13.
For A4G A24C G36U C42A the value was 0.07; for A4G C8A G30C C37A, 0.15; for A4G G27U U28C G29U C31U G35A G44A, 0.01.
To A4G C10A C18A U32C A41U belongs 0.
In the case of A4G G22C C45G, the self-cleavage came out at 0.05.
To A4G C18A G19C belongs 0.03.
For A4G C13U G40U the value was 0.16; for A4G G21U U32A G40U U43A, 0.04; for A4G C10G G17A G19A A25U A26U U32A U34G A39U, 0.
To A4G G5A G7A G19U C42U C46U belongs 0.11; to A4G C23A G27C G36C U38C, 0.02; to A4G A16U G33C C45A, 0.02.
On to A4G U9A A25U G27C U32A U34C, for which the self-cleavage amounted to 0.1.
As to A4G A24U G27U, the self-cleavage was 0.34.
To A4G A26U G30A belongs 0.99; to A4G G17C U28A G40C G44C, 0.03.
To A4G G21U U28C G36C G44A belongs 0.33.
Turning to A4G A26C U32G, the self-cleavage is 0.3.
For A4U A6C U32G the value was 0.04.
To A4G G17U G29A belongs 0.24.
To A4G C10U U28C G30A U43C belongs 0.16.
Regarding A4G U28A G44U, the self-cleavage is 0.06.
For A4G C8G C10A G22U C23U A24G the value was 0.01; for A4G G27U G29C, 0.04.
For A4G C8U A12C G17A C46A the value was 0.04; for A4G G30U G36U, 0.03.
To A4G G7U C15G A25G C46U belongs 0.04; to A4G G5U U20C G33U U38C, 0.05.
As for A4G G22A G27A G29U A39U, the self-cleavage turned out to be 0.11.
To A4G G33U C45U belongs 0.06; to A4G G17U G21A G22U A26U G27U U32A G35U, 0.05; to A4G G17U G27U, 0.44.
To A4G C15G A25C C46U belongs 0.08; to A4G C13A G30A, 0.06; to A4G C13U A16C G21U, 0.07.
To A4G G29U U34C G36A belongs 0.21; to A4G G7U C8A G40U, 0.3.
As for A4G G7A C15U G30U C42U, the self-cleavage came to 0.58.
To A4G G5A C8A C37G belongs 0.2; to A4G G22U C31U G33C, 0.12; to A4G U20A U43A, 0.09.
For A4G G19A A25C the value was 0.43; for A4G C8A A39C, 0.13; for A4U A6C U9G C10U C13U U43C, 0.03.
For A4G U20C G35A C37A C45A the value was 0.01; for A4U A11C A14U U20A U34A, 0.02.
For the variant A4G G27A U28C U43A, the self-cleavage stood at 0.06.
For A4G A16G U43A the value was 0.18; for A4G U9C G17U A24U U28A C37A, 0.02.
A4U A6G G40U: the self-cleavage was determined as 0.11.
For A4G A24C C42G, the self-cleavage is 0.04.
Turning to A4G G17U U28C G29A G30C, the self-cleavage came to 0.07.
To A4G G17A C18A G29C C42U belongs 0.03.
To A4G G5U G22U C45A belongs 0; to A4G C23U U32C G33U U38A, 0.08; to A4G A26U U38C, 0.11.
Take A4G C8A G17C A24G: the self-cleavage was 0.08.
As for A4U A6U A11U G35A, the self-cleavage turned out to be 0.03.
To A4G C13A G21U belongs 0.3; to A4G G27C G36A C42A, 0.01; to A4G C8A A12C A41C C45A, 0.03.
With A4G U34C G40A, the self-cleavage came to 0.08.
As to A4G G22A G35A C37A G44C, the self-cleavage came to 0.07.
To A4G G17U C37A belongs 0.03.
To A4G C23A G29A G35U A39G belongs 0.13; to A4U A6U A14U, 0.09.
For A4G G7C A14G U28A U38A the value was 0.43; for A4G U9A C15U G21U, 0.2; for A4G G7U U20C, 0.07.
Regarding A4G C13G U20C, the self-cleavage is 0.44.
To A4G C13G U32A belongs 0.12; to A4G C8U C46G, 0.33.
For A4G U32A C37G the value was 0; for A4U A6G C18A, 0.11; for A4G G7A C13U A14C C15G, 0.04.
To A4G U9G U20A G36C C45U belongs 0.04; to A4G C10G C42G, 0.02.
Take A4G G19U U20C G30U: the self-cleavage is 0.28.
To A4G C10U A24C G27A G29C belongs 0.01; to A4G G5A G7C G30C G35C A41G, 0.08.
Regarding A4G A26C G27A, the self-cleavage was 0.08.
To A4G U9A A16G G29U belongs 0.13; to A4G U20A G21A, 0.34; to A4G G5C C42U, 0.02.
To A4G G17A A24U belongs 0.03.
In the case of A4G U9A A11C G36U, the self-cleavage is 0.02.
For A4G G33C A41G the value was 0.1; for A4G G29U G36C, 0.09.
To A4G C10U C15U G29A belongs 0.2.
On to A4G G17C G22U C37U, for which the self-cleavage turned out to be 0.05.
Regarding A4G A16G U34C, the self-cleavage came out at 0.08.
To A4G G22U U34C C37A U43C belongs 0.08; to A4U A11C A16C G21C U32A G40A, 0.02; to A4G U9G G35C C37A, 0.01.
For A4G C18G C45G the value was 0.04.
For A4G A25U U32C G40U the value was 0.05; for A4G C8G C13U C37G, 0; for A4G U32C C37G, 0.05.
In the case of A4G C13U G35C U38A, the self-cleavage was 0.04.
Take A4G G19A G30C U38A G44A: the self-cleavage was found to be 0.04.
With A4G U20C C23G C45U, the self-cleavage came to 0.31.
To A4G C10U C15U C18U C46U belongs 0.04; to A4G G5U C13U, 0.06.
To A4G G21U U34C belongs 0.35; to A4G U34C C37U, 0.04; to A4G A16U U20A A26C, 0.06.
